# According to the supplement of paper PMC4967469:
# A lower IC50 marks a more sensitive line; a fit beyond the top or the lowest dose is shown as a bound at that dose. AUC, from the same fit, is the share of area under the viability curve across the 256-fold dose range; it is 1 without any effect and falls as sensitivity rises. For some assays here: The top dose, if marked as inferred, was derived from the fitted curves, not read from the paper. For some assays here: Drugs with an entry number were screened twice under separate entries, and the two screens often disagree.
# Tests used:
# Experiment in all cases: Viability of human cancer cell lines after 72 h of drug (GDSC screen)
# Tamoxifen = compound: CC/C(=C(\c1ccccc1)c1ccc(OCCN(C)C)cc1)c1ccccc1 [Tamoxifen]; details: top dose 5 µM
# Method: (§1)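 Human cancer cell lines in 384-well plates, medium with 10% serum, drug for 72 h over a 256-fold dose range (nine 2-fold or five 4-fold steps up to the top dose). Adherent lines were fixed and stained with the nucleic acid dye Syto60, suspension lines read with resazurin; signal relative to control wells, capped at 0 and 100%. One two-parameter sigmoid per drug and line, fitted in a mixed model over all curves with the slope shared within a line.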
# VNLG/124 = compound: CCCC(=O)OCc1ccc(OC(=O)/C=C(C)/C=C/C=C(C)/C=C/C2=C(C)CCCC2(C)C)cc1 [VNLG/124]; details: top dose 5.12 µM; top dose inferred
# Method: as §1
# Elesclomol = compound: CN(NC(=O)CC(=O)NN(C)C(=S)c1ccccc1)C(=S)c1ccccc1 [Elesclomol]; details: top dose 0.2 µM; top dose inferred
# Method: as §1
# HG-5-88-01 = compound: COc1cc(N2CCC(C(N)=O)CC2)ccc1Nc1nc(N)c(Cl)c(Nc2ccccc2S(=O)(=O)C(C)C)n1 [HG-5-88-01]; details: top dose 10 µM; top dose inferred
# Method: as §1
# Bleomycin = compound: Cc1c(N)nc([C@H](CC(N)=O)NC[C@H](N)C(N)=O)nc1C(=O)N[C@H](C(=O)N[C@H](C)[C@@H](O)[C@H](C)C(=O)N[C@H](C(=O)NCCc1nc(-c2nc(C(=O)NCCC[S+](C)C)cs2)cs1)[C@@H](C)O)[C@@H](OC1OC(CO)C(O)C(O)C1OC1OC(CO)C(O)C(OC(N)=O)C1O)c1cnc[nH]1 [Bleomycin]
# Method: as §1
# Masitinib = compound: Cc1ccc(NC(=O)c2ccc(CN3CCN(C)CC3)cc2)cc1Nc1nc(-c2cccnc2)cs1 [Masitinib]; details: top dose 20 µM
# Method: as §1
# LAQ824 = compound: O=C(/C=C/c1ccc(CN(CCO)CCc2c[nH]c3ccccc23)cc1)NO [LAQ824]; details: top dose 1.024 µM; top dose inferred
# Method: as §1
# OSI-930 = compound: O=C(Nc1ccc(OC(F)(F)F)cc1)c1sccc1NCc1ccnc2ccccc12 [OSI-930]; details: top dose 10.24 µM
# Method: as §1
# BX-912 = compound: O=C(Nc1cccc(Nc2ncc(Br)c(NCCc3cnc[nH]3)n2)c1)N1CCCC1 [BX-912]; details: top dose 10.24 µM; top dose inferred
# Method: as §1
# NSC-87877 = compound: O=S(=O)(O)c1ccc2cc(N=Nc3cc(S(=O)(=O)O)c4cccnc4c3O)ccc2c1 [NSC-87877]; details: top dose 16 µM; top dose inferred
# Method: as §1
# [1] = top dose 50 µM, screen: GDSC drug entry 1378, top dose inferred
# [2] = top dose 64 µM, screen: GDSC drug entry 190
Cell Line,AUC (Tamoxifen),IC50 (Tamoxifen),AUC (VNLG/124),IC50 (VNLG/124),AUC (Elesclomol),IC50 (Elesclomol),AUC (HG-5-88-01),IC50 (HG-5-88-01),AUC (Bleomycin; [1]),IC50 (Bleomycin; [1]),AUC (Bleomycin; [2]),IC50 (Bleomycin; [2]),AUC (Masitinib),IC50 (Masitinib),AUC (LAQ824),IC50 (LAQ824),AUC (OSI-930),IC50 (OSI-930),AUC (BX-912),IC50 (BX-912),AUC (NSC-87877),IC50 (NSC-87877)
"ALL-SIL (T-cell leukaemia, suspension)",0.969,> 5 µM,0.976,> 5.12 µM,0.615,0.0247 µM,0.818,4.65 µM,0.57,4.72 µM,0.162,0.457 µM,0.062,< 0.0781 µM,0.159,0.00712 µM,0.809,4.45 µM,0.141,0.0613 µM,0.987,> 16 µM
"AMO-1 (haematopoietic neoplasm, suspension)",0.978,> 5 µM,0.988,> 5.12 µM,0.869,0.142 µM,0.799,4.02 µM,0.975,> 50 µM,0.886,53.5 µM,0.838,10.9 µM,0.292,0.0183 µM,0.975,> 10.2 µM,0.85,6.16 µM,0.991,> 16 µM
"ASH-3 (thyroid, adherent)",0.987,> 5 µM,0.983,> 5.12 µM,0.622,0.0271 µM,0.939,> 10 µM,0.672,9.44 µM,0.639,9.69 µM,0.983,> 20 µM,0.578,0.105 µM,0.982,> 10.2 µM,0.983,> 10.2 µM,0.967,> 16 µM
"ATN-1 (T-cell lymphoblastic leukaemia, suspension)",0.916,> 5 µM,0.669,0.914 µM,0.446,0.00898 µM,0.945,> 10 µM,0.695,10.5 µM,0.754,20.2 µM,0.866,15.9 µM,0.336,0.0232 µM,0.967,> 10.2 µM,0.227,0.11 µM,0.98,> 16 µM
"BB65-RCC (kidney, adherent)",0.951,> 5 µM,0.983,> 5.12 µM,0.604,0.0253 µM,0.964,> 10 µM,0.807,30.5 µM,0.666,12.5 µM,0.88,> 20 µM,0.477,0.0548 µM,0.982,> 10.2 µM,0.966,> 10.2 µM,0.969,> 16 µM
